Measurements published in paper PMC4336329 (PLoS ONE, 2015).
The campaign covered roughly 310,000 compounds. About 14,000 (4.5%) showed an effect of 50% or more. The effect is printed as a negative number. The list shows a part of the results.

Target: human ether-à-go-go-related gene (hERG) potassium channel (human, UniProt Q12809)
Experiment: primary screen, population patch clamp on CHO cells stably expressing hERG
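Note: peak tail current of the secondary pulse compared with the same well before compound.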

human ether-à-go-go-related gene (hERG) potassium channel, sequence (Q12809 whole entry, looked up): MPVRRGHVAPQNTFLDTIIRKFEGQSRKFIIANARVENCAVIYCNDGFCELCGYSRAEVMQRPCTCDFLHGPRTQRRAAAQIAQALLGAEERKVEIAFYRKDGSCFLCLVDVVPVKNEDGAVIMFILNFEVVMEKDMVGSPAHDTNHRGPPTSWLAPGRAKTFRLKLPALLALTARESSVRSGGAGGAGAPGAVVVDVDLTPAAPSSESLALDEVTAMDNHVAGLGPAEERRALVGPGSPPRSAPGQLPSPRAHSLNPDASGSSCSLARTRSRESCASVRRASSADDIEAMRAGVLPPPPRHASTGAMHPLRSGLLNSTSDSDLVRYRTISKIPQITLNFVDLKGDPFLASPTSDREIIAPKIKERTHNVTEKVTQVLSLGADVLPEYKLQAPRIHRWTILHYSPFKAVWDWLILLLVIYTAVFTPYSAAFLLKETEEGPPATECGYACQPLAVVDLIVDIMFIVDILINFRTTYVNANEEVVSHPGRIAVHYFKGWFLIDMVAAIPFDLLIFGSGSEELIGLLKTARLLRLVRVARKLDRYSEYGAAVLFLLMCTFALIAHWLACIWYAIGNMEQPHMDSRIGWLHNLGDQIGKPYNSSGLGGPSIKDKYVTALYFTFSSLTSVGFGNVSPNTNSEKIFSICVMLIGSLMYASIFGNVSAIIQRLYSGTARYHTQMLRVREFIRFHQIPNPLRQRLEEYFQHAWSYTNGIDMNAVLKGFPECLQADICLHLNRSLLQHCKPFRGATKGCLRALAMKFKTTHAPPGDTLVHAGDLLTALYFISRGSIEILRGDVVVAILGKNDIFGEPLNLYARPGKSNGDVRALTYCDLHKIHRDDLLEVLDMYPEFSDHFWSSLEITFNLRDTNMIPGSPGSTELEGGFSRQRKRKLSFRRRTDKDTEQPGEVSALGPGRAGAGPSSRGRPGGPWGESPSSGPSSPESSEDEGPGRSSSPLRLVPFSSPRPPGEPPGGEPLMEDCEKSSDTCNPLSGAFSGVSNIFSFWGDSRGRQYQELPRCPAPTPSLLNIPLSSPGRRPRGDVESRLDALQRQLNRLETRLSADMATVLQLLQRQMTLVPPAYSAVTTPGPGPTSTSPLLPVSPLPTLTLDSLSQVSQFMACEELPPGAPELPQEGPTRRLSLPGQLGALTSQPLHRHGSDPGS

Row | SMILES | hERG current change (%, negative = inhibition) at 10uM [%]
1 | COc1ccc(OC)c(-n2c(SCC(=O)Nc3cccc(S(N)(=O)=O)c3)nc3ccccc3c2=O)c1 | -18.8
2 | O=C(Nc1ccc(N2CCN(C(=O)c3cccs3)CC2)cc1)c1ccccc1Cl | 16.6
3 | CC1(C)Cc2c(cnn2-c2ccc(F)cc2)C(NC(=O)CCN2CCCC2=O)C1 (stereo not drawn) | 5.01
4 | CCOc1ccc(/C=N/Nc2nc(=O)[nH]nc2C)cc1OC | -27
5 | Cc1ccc(-n2c(O)c(/C=N/NC(=O)C3COc4ccccc4O3)c3ccccc3c2=O)cc1 (stereo not drawn) | -8.71
6 | CCCCn1c(CCn2nc(C)c(Br)c2C)n[nH]c1=S | 7.63
7 | O=C(COc1ccccc1-c1ccccc1)N/N=C/c1ccncc1 | -26.2
8 | O=S(=O)(Nc1ccc(Oc2ncccn2)c(Cl)c1)c1ccc(Cl)cc1 | -9.75
9 | CCCCC1(CCCC)NC(=S)N(Nc2ccc(C)cc2)C1=O | 10.7
10 | CC(C(=O)NN)c1ccc([N+](=O)[O-])cc1 (stereo not drawn) | 2.22
11 | CCOC(=O)C(C#N)C(c1cccnc1)c1c(C)[nH][nH]c1=O (stereo not drawn) | 17.4
12 | CCCc1sc(N2CCCC(C(N)=O)C2)nc1-c1ccccc1 (stereo not drawn) | -12.9
13 | O=S(=O)(Cc1cc(Sc2ccc(Cl)cc2)nc(-c2ccccc2)n1)c1ccccc1 | 0.42
14 | Cc1ccc(S(=O)(=O)c2c(C)nn(C(C)(C)C)c2OC(=O)C(C)(C)C)cc1 | 15.6
15 | COc1cc2c(cc1NC(=O)c1cc(-c3ccncc3)nc3ccccc13)oc1ccccc12 | -14.9
16 | Cc1ccc(-n2ncc3c(=O)n(CC(=O)N(C(C)C)C(C)C)cnc32)cc1 | 14.4
17 | C=CCN1C(=O)NC(=O)/C(=C/c2ccc(OC)c(COc3ccc(NC(C)=O)cc3)c2)C1=O | 8.75
18 | COc1ccccc1NC(=O)c1ccc(CN2CCOCC2)cc1 | 1.57
19 | COc1cc2c(cc1OC)CN(CC(=O)NC(=O)NCc1ccccc1)CC2 | -15.9

Row | SMILES | hERG current change (%, negative = inhibition) at 10uM [%]
20 | C=CCc1ccc(O)c(-c2cc(CC=C)ccc2O)c1 | 10.4
21 | COc1c(C)cc(C(=O)C2CCCN(C(=O)Cn3ccc(C)n3)C2)cc1C (stereo not drawn) | -8.89
22 | Nc1c(C(=O)C2CC2)sc2nc3c(cc12)CCC3 | 8.73
23 | O=S(=O)(Nc1cccc(-c2nnco2)c1)c1ccc(Cl)cc1 | -3.31
24 | Cn1nc(C(C)(C)C)c([N+](=O)[O-])c1C(N)=O | 12.4
25 | Cc1n[nH]c(C)c1CCC(=O)N/N=C/c1cccc([N+](=O)[O-])c1 | 14.8
26 | CC1CC(C)CN(CCOCCSc2ccc(Cl)cc2)C1.O=C(O)C(=O)O (stereo not drawn) | -72.4
27 | COCc1nc2ccccc2n1Cc1c(F)cccc1Cl | -12.7
28 | O=C(NCc1cccc2ccsc12)c1cccs1 | -0.882
29 | O=C(Nc1ccccc1O)C(c1ccccc1)c1ccccc1 | -18.6
30 | COc1ccc(C(=O)NCC(O)CN2CCOCC2)cc1[N+](=O)[O-] (stereo not drawn) | 10.4
31 | COc1ccc(NC(=O)CN(C)C(=O)CCNC(=O)c2ccccc2OC)cc1 | 7.38
32 | O=c1[nH]c(C2CCN(S(=O)(=O)c3ccccc3C(F)(F)F)CC2)nc2c1nnn2Cc1ccccc1 | -30.1
33 | O=C(O)c1cccc(S(=O)(=O)Nc2ccc(S(=O)(=O)N3CCOCC3)cc2)c1 | 8.28
34 | CCn1cc(S(=O)(=O)Nc2cc(C)ccc2F)cn1 | 3.63
35 | O=c1oc2ccccc2c(Nc2cc3ccccc3cc2O)c1[N+](=O)[O-] | 3.95
36 | COc1ccccc1C(=O)Oc1ccccc1C(=O)Nc1ccccc1 | 9.75
37 | CC(=O)/C(N=Nc1ccc(C(=O)O)cc1)=C(\C)O | -5.56
38 | CCOc1ccc2nc(NC(=O)Cc3cccs3)sc2c1 | 0.978

Row | SMILES | hERG current change (%, negative = inhibition) at 10uM [%]
39 | O=C(CCSCc1cccc(Cl)c1)NCCC1=CCCCC1 | -13
40 | Cc1nnsc1C(=O)Nc1ccc(S(=O)(=O)N2CCCC(C)C2)cc1 (stereo not drawn) | 18.6
41 | Oc1c(Cl)cc(Cl)cc1C(C#Cc1ccccc1)N1CCOCC1 (stereo not drawn) | -8.47
42 | O=C(O)c1cc(-n2nnnc2SCc2ccccc2F)ccc1Cl | 22.2
43 | O=C(NC(=S)N1CCCC1)c1ccc(Cl)cc1Cl | 20
44 | C[n+]1c(/C=C/c2ccc3c(c2)OCO3)ccc2ccccc21.[I-] | 25.7
45 | COCC(=O)N1CCC(Oc2ccc(C(=O)N(C)C(C)c3ccon3)cc2)CC1 (stereo not drawn) | 14.6
46 | Cc1nc2ccccc2c(=O)n1CCc1ccccc1 | 1.1
47 | Cc1cc(-c2ccccc2)nc(Oc2ccc(C(C)(C)C)cc2)c1S(C)(=O)=O | 9.4
48 | c1ccc(N2CCN(c3ncnc4sc5c(c34)CCC5)CC2)cc1 | 12.4
49 | Cc1noc(C)c1COc1cccc(C(=O)OCC(=O)NCCN2C(=O)CSC2=O)c1 | -3.17
50 | CC(C)CCc1noc(CN2CCC(C(=O)N3CCOCC3)CC2)n1 | -6.13
51 | C[C@H]1CCC[C@@]2(O[C@H](CCO)C[C@@H](O)[C@@H]2O)O1 | 22.1
52 | C=CCn1c(C(C)C)nc2ccccc21.Cl | 25.1
53 | c1ccc(CCCN2CCOCC2)cc1 | 22.1
54 | NC1=NC[C@@H](Cc2ccc(O)cc2)N1CCC12CC3CC(CC(C3)C1)C2 | -9.99
55 | COc1ccc(NC(C)=O)cc1S(=O)(=O)NCCc1ccccn1 | -2.22
56 | COc1ccc(S(=O)(=O)N2CCCCC2)cc1NC(=S)Nc1cccc(Cl)c1C | -0.424
57 | CC(C)Oc1ccc(C2(C#N)CC[N+](C)(C)CC2)cc1.[Br-] | -3.81
